According to paper PMC7096384, “Antiviral Activity of Chicken Cathelicidin B1 Against Influenza A Virus” (Frontiers in Microbiology, 2020):

How the values were obtained:
IAV = details: ref Tripathi et al., 2013, cited from earlier work
H3N1 IAV = test: Electron microscopy of virus incubated with peptide; set-up: species or system Influenza A virus; details: 1 h 37°C
H1N1 virus = type: cell-based, Influenza A virus; details: H1N1, HD11 cells
NA of H1N1/PR8 = test: MUNANA neuraminidase activity assay; details: CATH-B1 0–40 μM, 1 h 37°C with IAV, then MUNANA 1 h; two independent experiments
[1] = system: H1N1/PR8 (NA cleavage of fetuin, dependent on HA receptor binding); test: ELLA solid phase cleavage assay with fetuin; details: 5 μM CATH-B1, IAV PR8, 2 h 37°C, pH 6; two independent experiments

LLGDFFRKSKEKIGKEFK RIVQRIKDFLRNLVPRTES [LL-37, human cathelicidin, 37 amino acids, used for comparison, reference compound]
disruption of the IAV viral membrane (IAV; in vitro): directly induce disruption of the IAV viral membrane
HA-receptor binding, virus binding to and uptake into cells (IAV; Tripathi et al., 2015): did not inhibit HA-receptor binding and failed to inhibit virus binding to and uptake into cells
aggregation of viral particles (electron microscopy) (H3N1 IAV; 20 μM peptide): some smaller aggregates were observed
alteration of the viral structure (electron microscopy) (H3N1 IAV; 20 μM peptide): no clear alteration of the viral structure

PIRNWWIRIWEWLNGIRK RLRQRSPFYVRGHLNVTSTPQP [CATH-B1]
antiviral activity after mixing peptide and virus, then treatment with Capto Core 700 beads (H1N1 virus; 30 min 37°C pre-incubation, beads 20 min 4°C): the antiviral activity of CATH-B1 was maintained
antiviral effect when peptide is incubated with beads prior to virus addition (H1N1 virus): very little antiviral effect
inhibition of NA activity (MUNANA substrate) (NA of H1N1/PR8): no inhibition of NA activity was observed
aggregation of viral particles (electron microscopy) (H3N1 IAV; 5 μM peptide): smaller aggregates were observed
aggregation of viral particles (electron microscopy) (H3N1 IAV; 20 μM peptide): large aggregates were observed
alteration of the viral structure (electron microscopy) (H3N1 IAV; 20 μM peptide): no clear alteration of the viral structure
cleavage of sialic acids on fetuin (ELLA) [1]: inhibited cleavage of sialic acids on fetuin

RFGRFLRKIRRFRPKVTITIQGSARF [CATH-2, chicken cathelicidin, 26 amino acids]
aggregation of viral particles (electron microscopy) (H3N1 IAV; 20 μM peptide): some smaller aggregates were observed
alteration of the viral structure (electron microscopy) (H3N1 IAV; 20 μM peptide): no clear alteration of the viral structure
